Source: the supplement of paper PMC11417369
± gives the standard deviation of the averaged measurements. This is one part of the list.

These sequences were tested on PfAP2-G AP2 domain (GST-tagged) (assay: gcPBM binding intensity (ln(normalized median fluorescence intensity)); higher = stronger DNA binding).
In short: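 The binding buffer was 1× PBS containing 1% milk, 0.2 mg/ml BSA, 0.5% salmon testes DNA and 0.03% Triton X-100. In it, GST-tagged P. falciparum DNA-binding domains expressed in E. coli were applied for 1 h to an Agilent 4 × 180k array of primer-extended double-stranded 36-bp intergenic genomic probes plus negative controls. Binding intensity, read with Alexa488 anti-GST antibody and a 488 nm scan, is the highest Masliner-normalised natural-log median intensity across replicate spots of either probe orientation.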

Point of comparison: “ATAACCTAATAATACACACACATGAATATAAATAAC [CACACA_site6584]”, “gcPBM binding intensity (ln)” value 10.2 ± 0.18. Against it:
- GTAGTGGTTGAATATACACACATATATATATATATA [CACACA_site2651] — within error, 10.1 ± 0.23
- AACGTGTATTTATATTGTACACATTCATACATCAAA [XGTACX_site3644] — higher, 11.4 ± 0.95
- ACCCTTTTATATAAGAGTACAAACGTATTATTAAAT [XGTACX_site2221] — higher, 11.2 ± 0.76
- AATATTAAAAACAAAACACACAAAAAAAAATAAAAT [CACACA_site702] — lower, 9.94 ± 0.071
- ATATATGACTAATAAAGTACATACTTCATATAATTA [XGTACX_site6699] — higher, 11.2 ± 0.74
- TATATTATATATATACTGCACTGTTTTACAAAATTA — within error, 10.1 ± 0.26
- ATATTAATTTCTCATGCATGTTCTACCCAATTGTAA [TGCATGCA_site355] — within error, 10.1 ± 0.071
- TTTTGTTATTATGAAGTGCATTTATGTTCATGTCTA — within error, 10.1 ± 0.21
- AAAAAAAAAAAAAATTCACACAAGACTACTACATTT [CACACA_site4195] — lower, 9.77 ± 0.13
- AAAATCTAATATAATGCACACATAAAAAAAAATCAA [CACACA_site9211] — within error, 10 ± 0.2
- CTAAAATGTAAAAACGCACACATAATATTATAAAAA [CACACA_site2788] — the same, 10.2 ± 0.23
- AAAGCATGTTAATATGTATAAATACTGATCATTCAC [GTGCAC_negctrl_site576] — lower, 9.865 ± 0.049
- TTTTAGTTATTGTATTATTATTAATATATAATATCT [CACACA_negctrl_site1528] — lower, 9.79 ± 0.12
- CTTGTCATTTGGCACACACACATGTATAGGTTATTA [CACACA_site5656] — within error, 10.4 ± 0.2
- TATATAAATAAACACACACACACCTTATAATTATTA [CACACA_site9345] — within error, 9.94 ± 0.13
- AACAGATAATATAAAAAAAAAAAAAAAAATAATTAA [GTGCAC_negctrl_site69] — lower, 9.44 ± 0.028
- TGAATAAATCAAAGCACACATACACAGACATATATA [CACACA_site4316] — within error, 10.1 ± 0.16
- TTTTGTACATCTTTTGCACACGTAATGTTATTATAA [CACACA_site1259] — higher, 11.4 ± 0.98
- AATAAATAAAAATGCACACAGTTAACATGTTGAATT [CACACA_site4795] — lower, 10.005 ± 0.007
- ATCTTAATTTTTGAAGGTACACACTAATATATTAAA [XGTACX_site2292] — within error, 11.1 ± 0.76
- ATATTTTATTATATAGGTACACATAATTTCATGTAA [XGTACX_site415] — higher, 11.2 ± 0.65
- TATATAGTAAATATTTGTACATAATAAAATATATGT [XGTACX_site7873] — within error, 10.8 ± 0.48
- TATAATATAAAAATGAGTACATAGATAATAATATTT [XGTACX_site2376] — higher, 11.3 ± 0.74
- TTTTTTTTTTATTAATGTACAAGATATATAATGTTA [XGTACX_site4809] — within error, 10.8 ± 0.65
- AAAATTTAATATAATGCACACATAAAACAAAAACAA [CACACA_site8071] — within error, 10.3 ± 0.23
- AAATGTAGAAAAAGTTGTACACTGTTTCAAAAATAA [XGTACX_site1063] — higher, 11.6 ± 0.97
- AATGATACACATATATGTACATATATATATATATAT [XGTACX_site5391] — higher, 11.2 ± 0.49
- TGCAATATATCAAAGTGTACATGCAATAAAAAAAAA [XGTACX_site652] — higher, 11.1 ± 0.71
- ATATGGATTATACATACATGCATACATACATACATA [TGCATGCA_site475] — the same, 10.2 ± 0.23
- TATATACATATATGCACACAAAAAAATATATATTTT [CACACA_site1729] — within error, 10.1 ± 0.13
- ATAATTAAAATTAAATGTACTTTTTTATATATTTTT [XGTACX_site2209] — higher, 11.4 ± 1
- AATTTCTTTTTCGATATACACACTGTATGTGTCTAA [CACACA_site3975] — within error, 10.01 ± 0.028
- TTTAAAGTTTTATACACACACCAAAGTTATTCTAAT [CACACA_site6432] — lower, 9.99 ± 0.014
- CAATGAAAAATAATGAGTACATAGTTAATAAAGATA [XGTACX_site72] — higher, 11.3 ± 0.54
- TAATATATATATATGGTGCATTTAATTTATATATAA — within error, 9.97 ± 0.33
- TATGAAATTTTAATTACACACAGGAAAATAAAATGT [CACACA_site8430] — within error, 10.1 ± 0.18
- GCCCACACGAACCATGCATGCCACGATATAAACCAC [TGCATGCA_site322] — within error, 10.3 ± 0.26
- TTTTTTACAGAAAAATATTAAAATTATAAATGTGAA [GTGCAC_negctrl_site451] — within error, 9.88 ± 0.16
- TTATTTTTCTTTATTGGTACACACGAAAAAAAAATT [XGTACX_site6482] — within error, 11.1 ± 0.76
- TTATAATATATATAAAAGAAAAAAAATTATAATATA [CACACA_negctrl_site90] — lower, 9.61 ± 0.2
- AAAAAAAAAAAAAGCTGTACAATTAAAGACAAACCT [XGTACX_site8610] — within error, 11.1 ± 0.79
- CTTTAACCATATATGTGTACGTATTTTATTCATATT [XGTACX_site6212] — higher, 11.8 ± 1.1
- ATATATATTTTTAATTGTACAGAATTAAAAATATTG [XGTACX_site1967] — within error, 10.8 ± 0.54
- AAGAAGTGGAAAATATACTCCACATATATATATGTG [CACACA_negctrl_site304] — within error, 10.4 ± 0.2
- AAAAAACAATTTGTGTGTACACATGATACGTTCGAT [XGTACX_site4112] — higher, 11.6 ± 0.89
- ATATATATATAATGTTGTACATAAATATTATATTTA [XGTACX_site5225] — higher, 11.2 ± 0.7
- TTTTTATTTATTCTCTTTGTATTATAAAATAAAAGC [XGTACX_negctrl_site253] — within error, 10.07 ± 0.064
- ACATGTGAATTTTAGGTGCACTTGTAATTTAACATT — within error, 10.3 ± 0.23
- GGAAAAATATAATATGCATGTTATTATTTTTTTATA [TGCATGCA_site836] — lower, 9.43 ± 0.24
- TTCTTCTGTTTTATTACACACCATTTTGTGTATACA [CACACA_site7059] — within error, 10.4 ± 0.23
- TCTTAATCGTATTATTACTATAATTATATAATATTT [CACACA_negctrl_site1594] — within error, 9.945 ± 0.078
- TATGTATATACATAAACATGCAAAAACAATATCTTA [TGCATGCA_site950] — lower, 9.85 ± 0.014
- TATTTATTTATTTAATGTACAAAAGAACAAGAATTT [XGTACX_site2248] — within error, 10.9 ± 0.56
- GATCTAAAAACAAGGTGTACAAGAAAAAAAAAAAAA [XGTACX_site7577] — higher, 11.3 ± 0.89
- ACAAAAGGGGAATACACACACATATATATATATATA [CACACA_site2215] — the same, 10.2 ± 0.34
- ATATATATATTATATAGTACAGAGTATACTATTATA [XGTACX_site1893] — within error, 11 ± 0.79
- AACGATATATGTACTACACACATTATGTCATCCTAT [CACACA_site2464] — higher, 11.5 ± 0.83
- CAAAAAGGAATGTATGCACACAATTGATTTTAACTC [CACACA_site1468] — within error, 10 ± 0.13
- TAAAACAATATAAAATGTACAGAATTTTTTTTTCTT [XGTACX_site6820] — within error, 10.7 ± 0.4
- CATAAATAATATATTTGTACGAATAAAATTTGTTCA [XGTACX_site3445] — within error, 10.8 ± 0.45
- AACTGATTATTTTTTTGTACATATATAATAATATAT [XGTACX_site5953] — higher, 10.9 ± 0.47
- TTCTTTTATGATAATTGTACCCTTTTTAAAAAGAAA [XGTACX_site7815] — higher, 11.5 ± 0.95
- ATAATGAAAAGAAAGGGTACAAAAAAAAAAAAAAAT [XGTACX_site3350] — within error, 11.2 ± 0.92
- TTTTTTTTCAATGGCACACATTTTAGATTTATGCTT [CACACA_site4735] — within error, 10.1 ± 0.18
- ATATATATTTTATACGCATGTAATTATTATGTGGTC [TGCATGCA_site45] — within error, 10.5 ± 0.13
- AAACAATTTGGGTGTACACATGATACGTTCGATGAG [CACACA_site5160] — higher, 11.6 ± 0.87
- ATATTATACATTTATACACACATAAAAAGACAAAAA [CACACA_site3565] — within error, 10.3 ± 0.3
- ATAATTTATATTACTTGTACATATTTATATGAACGA [XGTACX_site3610] — higher, 11.1 ± 0.65
- TGTAATATTTTTCATGCATGCTCTTCTTTTACATAA [TGCATGCA_site144] — within error, 10.05 ± 0.049
- TTATATATATATATATGTACACATATATAACATGAT [XGTACX_site6643] — higher, 11.4 ± 0.91
- TATATTAAACAATATACACACATTAATGTATCCATA [CACACA_site5523] — within error, 9.975 ± 0.064
- CTTAATTTTTTTTAATGTACATACATATAAACCTTT [XGTACX_site2233] — higher, 11.2 ± 0.67
- AGTTATATGTACTACACACGTACACAAAATAAGATA [CACACA_site3719] — higher, 11.6 ± 0.75
- AAAATTAAAAATAACACACACATATTTATATTTATA [CACACA_site7329] — lower, 9.66 ± 0.042
- AAGGAGAAATATTGCACACGTGCAAAATGGTATGAG [CACACA_site259] — the same, 10.15 ± 0.064
- TATTCTTTTATGAATACACACATATACGAAAATATT [CACACA_site6585] — the same, 10.2 ± 0.26
- AAATGTTAAAAAGAGAAAAACAATAAAAAACAATTA [CACACA_negctrl_site1044] — lower, 9.61 ± 0.31
- AGGTGTCATAGATGCACACAAAAGTAACACGCACCT [CACACA_site4418] — within error, 10.26 ± 0.049
- AAAAGGTTATCAAAATGTACGAAATGTTACAAAAAT [XGTACX_site6215] — within error, 10.6 ± 0.37
- GGACTATACAGTTATACACACACATATATATATAAT [CACACA_site7991] — the same, 10.2 ± 0.17
- ACTACGTGTCAAAAATATTAATTACAAATGAATAAA [GTGCAC_negctrl_site248] — within error, 9.92 ± 0.41
- ATATGCTATTAATTATGTACATATATATATATATAT [XGTACX_site4901] — higher, 11.2 ± 0.71
- GTACATTATATATATACACACATACATAATAAAGAA [CACACA_site5528] — higher, 10.8 ± 0.39
- ATGAACAAGGGGCACACACACATTATGACTAATTTA [CACACA_site3204] — within error, 10.7 ± 0.52
- ATGCATACACTTATATGTACACATTTACATATTATT [XGTACX_site2841] — higher, 11.5 ± 0.84
- AATAAATAAATATATTGTACATATATATATATATAT [XGTACX_site8627] — higher, 11 ± 0.53
- CGAAAGGAAATATAACGTACATAAGATTATATTCAC [XGTACX_site3868] — higher, 11.3 ± 0.83
- AACATACTCACGAACATACACACGGACATACATACG [CACACA_site603] — higher, 11.1 ± 0.49
